Assay results published in publication PMC4336329 (PLoS ONE, 2015).
Screen size: about 310,000 compounds; about 2,200 (0.71%) showed an effect of 50% or more. The effect is printed as a negative number. Some of the results follow. Where a SMILES comes first, the peptide text is derived from it. The star is where a group is joined. Boc = CC(C)(C)OC(=O)*

These molecules were tested against human ether-à-go-go-related gene (hERG) potassium channel (human, UniProt Q12809) (assay: primary screen, population patch clamp on CHO cells stably expressing hERG).
human ether-à-go-go-related gene (hERG) potassium channel, sequence (Q12809 whole entry, looked up): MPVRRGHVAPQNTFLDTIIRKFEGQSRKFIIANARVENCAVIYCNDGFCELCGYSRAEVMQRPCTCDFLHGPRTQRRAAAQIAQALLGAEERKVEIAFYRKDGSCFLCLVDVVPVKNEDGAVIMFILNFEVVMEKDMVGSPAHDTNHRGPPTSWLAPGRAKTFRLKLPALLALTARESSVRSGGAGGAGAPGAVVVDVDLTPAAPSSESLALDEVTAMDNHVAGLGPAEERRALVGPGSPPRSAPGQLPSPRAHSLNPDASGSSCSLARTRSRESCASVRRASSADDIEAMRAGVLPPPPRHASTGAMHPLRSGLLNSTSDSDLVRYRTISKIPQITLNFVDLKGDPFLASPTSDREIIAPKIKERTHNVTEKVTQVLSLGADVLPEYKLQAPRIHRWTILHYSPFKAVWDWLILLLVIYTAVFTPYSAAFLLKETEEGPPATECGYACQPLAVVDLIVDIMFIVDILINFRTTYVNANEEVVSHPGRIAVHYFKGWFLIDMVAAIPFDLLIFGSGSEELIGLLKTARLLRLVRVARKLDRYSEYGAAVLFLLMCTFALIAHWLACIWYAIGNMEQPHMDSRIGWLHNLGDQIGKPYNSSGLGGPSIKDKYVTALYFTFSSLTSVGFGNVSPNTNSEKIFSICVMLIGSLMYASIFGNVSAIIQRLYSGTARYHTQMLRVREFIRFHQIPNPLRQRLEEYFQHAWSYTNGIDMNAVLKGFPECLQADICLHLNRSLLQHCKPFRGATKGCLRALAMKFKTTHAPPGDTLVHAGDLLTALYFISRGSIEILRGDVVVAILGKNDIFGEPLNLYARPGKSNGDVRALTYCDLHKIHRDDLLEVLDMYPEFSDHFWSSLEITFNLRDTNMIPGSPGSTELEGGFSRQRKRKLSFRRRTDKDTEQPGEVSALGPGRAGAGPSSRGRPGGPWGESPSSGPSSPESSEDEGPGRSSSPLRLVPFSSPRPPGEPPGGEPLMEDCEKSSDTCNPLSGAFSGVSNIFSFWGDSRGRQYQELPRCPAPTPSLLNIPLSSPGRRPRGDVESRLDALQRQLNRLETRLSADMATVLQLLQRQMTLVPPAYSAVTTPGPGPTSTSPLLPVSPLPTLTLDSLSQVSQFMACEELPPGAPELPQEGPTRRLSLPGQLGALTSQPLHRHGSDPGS

Compound | hERG current change (%, negative = inhibition) at 1uM
COc1ccc(C(=O)c2ccc(Cl)cc2Cl)cc1 | 3.74%
COc1ccc(C(C(=O)NCc2ccc(F)cc2)N(C(=O)c2csnn2)C2CC2)cc1 (centres unmarked) | -4.62%
NC(=O)c1sc(=S)n2c1[nH]c(=O)c1sccc12 | 6.55%
Cc1cc(NCC2CCCO2)n2c(nc3ccccc32)c1C#N (centres unmarked) | 6.98%
C=CCn1c(SCC(=O)NC2CC2)nc2sc(CC)cc2c1=O | -4.76%
O=C(NCc1cccs1)C1CCC(=O)N1C1CCCCC1 (centres unmarked) | 11.8%
CN(C)C1(CN=Cc2cc(Cl)cc([N+](=O)[O-])c2O)CCCCC1 | 14.1%
Cc1onc(-c2c(F)cccc2Cl)c1C(=O)OCc1cnc(Cl)s1 | 13%
Cc1cc2n(n1)C(c1cccs1)Nc1ccccc1-2 (centres unmarked) | 9%
CCOc1ccccc1N1CCN(C(=O)c2cccs2)CC1 | 13.9%
CCOc1ccc(CCNC(=O)CSCC(=O)Nc2cccc(C)c2)cc1OCC | 7.27%
COc1ccc(C2=C(C[NH+](C)C)C(c3ccccc3)c3ccccc3O2)cc1.[Cl-] (centres unmarked) | 9.73%
CCc1ccccc1NC(=O)CSc1nnc([C@@H](N)Cc2c[nH]c3ccccc23)o1.Cl | -4.23%
Cc1cccc(N2CCN(C(=O)C3CCN(S(=O)(=O)c4cccc5cccnc45)CC3)CC2C)c1 (centres unmarked) | 8.86%
CC1=C(C(=O)Nc2ccc(Cl)cc2)C2(CCCCC2)C(C(N)=O)C(=S)N1 (centres unmarked) | 5.88%
CC(=O)N1CCc2c(sc(NC(=O)C3CCN(S(=O)(=O)c4cccs4)CC3)c2C(N)=O)C1 | -3.63%
Cc1cc(C)cc(NC(=O)CCN2CC(C)OC(C)C2)c1 (centres unmarked) | 12.7%
Cc1ccc2oc3c(c(=O)c2c1)C(c1cccs1)N(CCCN(C)C)C3=O (centres unmarked) | 7.72%
Cc1cc(N/N=C/c2ccccc2[N+](=O)[O-])nc(-n2nc(C)cc2C)n1 | 18.5%
CCCCn1c(SCC(=O)NCc2ccco2)nnc1-c1ccco1 | -4.89%
COCc1cc(C)nc(Nc2ccc(C)c(C)c2)c1C#N | 1.67%
CC(=O)N[C@@H](Cc1ccc(O)cc1)CN1C(N)=NC[C@@H]1CC(C)C | 5.59%

Compound | hERG current change (%, negative = inhibition) at 1uM
COCCn1c(C)cc(C(=O)CSc2ncn[nH]2)c1C | 4.71%
CSCc1cc(N(C)C)nc(SCc2ccc(Cl)c(Cl)c2)n1 | 9.47%
CCOC(Cn1c(-c2ccc(OC)cc2)nc2ccccc21)OCC | -3.69%
Cc1ccc(N(C(=O)c2csnn2)C(C(=O)NC(C)(C)C)c2ccncc2)cc1 (centres unmarked) | 10.2%
CCCn1cnnc1CNC(=O)C1CCC(=O)N(CCc2ccc(OC)cc2)C1 (centres unmarked) | 16.7%
O=C(NNC(=O)c1ccccc1F)C1=NN(c2ccccc2)C(=O)CC1 | 13.1%
Cc1cccc2sc(N(CCN(C)C)C(=O)/C=C/c3cccs3)nc12.Cl | 4.81%
CCc1cc2cc(C)ccc2nc1SCC(=O)N1CC(=O)Nc2ccccc21 | 13.3%
COCCNC(=O)NC12CC3CC(CC(C3)C1)C2 | 16.1%
CCOC(=O)c1cc(-c2ccccc2)sc1NC(=O)COC | 11.7%
Cc1cccc(/C=N/NC(=O)CN2CCCCCCC2)c1 | -4.73%
CN(C)S(=O)(=O)n1cnc(C(CCO)c2ncn(S(=O)(=O)N(C)C)c2CCCO)c1 (centres unmarked) | 5.19%
CCOc1ccc(C2CC(c3cccc(C)c3)n3nc(N)nc3N2)cc1 (centres unmarked) | -20%
CN(C)CCCN1c2ccc([N+](=O)[O-])cc2CCc2cc([N+](=O)[O-])ccc21 | 4.35%
Cc1cc(NC(=O)CSc2n[nH]c(-c3cccs3)n2)no1 | 12.5%
O=C1[C@H]2[C@@H](/C=C/c3ccccc3)N3C(=O)CN(Cc4ccccn4)C(=O)[C@@]3(Cc3ccccc3)[C@H]2C(=O)N1c1ccccc1 | -11.3%
Cc1ccc([N+](=O)[O-])cc1S(=O)(=O)Nc1ccc(N2CCOCC2)cc1 | 21.8%
CC(=O)NC(=S)Nc1ccc(NC(=O)COc2ccc(C(C)C)cc2)cc1 | 7.56%
CCOc1ccc(-c2n[nH]c(C)c2-c2ccccn2)c(O)c1 | -3.73%
CCn1c(=O)c(C(=O)NNC(=O)c2cccc(Cl)c2)c(O)c2ccccc21 | 16.2%
CC(C)(C)NC(=O)C(c1ccncc1)N(C(=O)C1CSC(=O)C1)c1ccccc1 (centres unmarked) | 13.5%
COc1ccc(NC(=S)N(CCC(C)C)C(C)c2ccncc2)cc1 (centres unmarked) | -8.31%

Compound | hERG current change (%, negative = inhibition) at 1uM
CCCc1cc(C(=O)NNC(=S)Nc2cccc(C)c2)cs1 | -10.3%
COc1cc(Cl)cc(/C=C/c2ccc3cccc(O)c3n2)c1OC | 9.37%
Cc1c(C(=O)N2CCN(C/C=C/c3ccccc3)CC2)oc2c(F)cccc12 | 1.59%
CC(C)n1c(O)c(N=NC(=O)CNC(=O)Cc2ccc(Cl)cc2)c2ccccc21 | 10.4%
CCN(Cc1ccncc1)C(=O)c1cc(COc2ccc(OC)cc2Cl)on1 | 7.12%
COc1ccccc1NC(=S)NCCc1c[nH]c2ccccc12 | 10.6%
c1ccc2c(Nc3ccc(N4CCOCC4)cc3)nc(N3CCOCC3)nc2c1 | -10.3%
CCNS(=O)(=O)c1ccc(CCC(=O)Nc2ccc3c(c2)OCO3)cc1 | 13.6%
COc1ccc(-c2cc(C(F)(F)F)nc(-n3cc(Br)cn3)n2)cc1 | 9.29%
C=CCSC1=C(C#N)C(c2ccccc2OCC)C(C#N)C(=O)N1 (centres unmarked) | 8.47%
Cc1ccc(-n2c(SCC(=O)NC3CCCCC3)nc3c(c2=O)SCC3)cc1 | 9.81%
Cc1cc(SCc2ccc(C(F)(F)F)cc2)nc(=O)[nH]1 | 14.6%
COc1ccc(/C=C/C(=O)OCc2cccc([N+](=O)[O-])c2)cc1 | 13.6%
CCCCOc1ccc(C(=O)NCCCC(=O)N2CCCCC2)cc1 | 6.02%
O=C(O)c1ccc(N/N=C/c2cc3cc4c(cc3nc2Cl)OCCO4)cc1 | 7.95%
Nc1nnc(SCCCC(=O)c2ccc(F)cc2)s1 | 5.55%
Cc1ccc2cc(C)c3nnc(SCc4ccc(C(=O)O)cc4)n3c2c1C | 9.63%
Cc1ccc(S(=O)(=O)Nc2ccccc2F)cc1C(=O)NCCCN1CCCC1=O | -8.22%
COC(=O)C1=C(C)N(CC2CC2)C(=NCc2cccc(Cl)c2)N[C@H]1c1ccccc1 | -6.12%
O=[N+]([O-])c1ccc(CNCc2cc(Cl)ccc2O)cc1 | -0.51%
Cc1cccc(OCC(=O)Nc2cc(C)on2)c1 | -1.09%
Cc1ccccc1-c1nnc(SCc2ccc(F)cc2)o1 | 9.31%

Compound | hERG current change (%, negative = inhibition) at 1uM
COc1ccc(C(=O)OCC(=O)NCC2CCCO2)cc1[N+](=O)[O-] (centres unmarked) | 8.12%
C=CCNC(=S)N/N=C/c1ccc(C)cc1C | 12.3%
COc1cc(SC)ccc1C(=O)NCc1ccc(C)cc1 | 0.52%
CC(NC(=O)C(NC(=O)C(Cc1c[nH]c2ccccc12)NC(=O)OC(C)(C)C)C(C)C)C(N)=O (stereo not drawn) (Boc-Trp-Val-Ala-NH2; configuration not given here) | 15.8%
CC(=O)c1cccc(NS(=O)(=O)c2ccc(-c3cc(C)no3)s2)c1 | 7.31%
O=C(c1ccccc1)c1ccc(NCCCn2ccnc2)c([N+](=O)[O-])c1 | -65.4%
CCOC(=O)[C@H]1[C@H]2COc3ccc(C)cc3[C@@H]2N2C(=O)[C@@H](CO)NC(=O)[C@@]12C | 9.97%
c1ccc(CN2CCN(c3ncccn3)CC2)cc1 | 12.2%
O=C(CSc1nc(O)cc(=O)n1-c1ccccc1)Nc1ccc2c3c(cccc13)CC2 | 4.42%
COc1cc2ccccc2cc1C(=O)Nc1nnc(-c2ccncc2)o1 | -19.4%
CN(C)C(=O)Oc1ccc2oc(=O)cc(-c3cc4ccccc4o3)c2c1 | 17.1%
O=C1C(=O)N(CCN2CCOCC2)C(c2cccnc2)/C1=C(/O)c1ccccc1 (centres unmarked) | 13.3%
Cc1[nH]nc(SCC(=O)N(C)c2ccccc2)c1[N+](=O)[O-] | 5.91%
COc1cc(/C=N\NC(=O)C2C(=O)NCC2c2ccccc2)cc(OC)c1O (centres unmarked) | 10.1%
C/C(=N\NC(=O)c1nnn(-c2nonc2N)c1CSc1ccccc1)c1cccnc1 | 7.94%
O=C(COC(=O)CCCOc1ccccc1)NNC(=O)c1ccc([N+](=O)[O-])cc1 | 6.34%
Cc1cc(NS(=O)(=O)c2ccc(NC(=S)Nc3ccc(Cl)cc3C)cc2)no1 | 13.4%
COc1cc(/C=N/N2CCOCC2)ccc1OCc1ccc(Cl)cc1 | 3.52%
Cn1ncc2c(NNC(=O)c3ccccc3Cl)ncnc21 | 9.66%
C/C(CC(=O)Nc1c(Cl)cccc1C(F)(F)F)=N\NC(=O)c1cnccn1 | 12.3%
